Results reported in the supplement of paper PMC3334620.
In all, about 33,000 sequences were measured (“E-score (-0.5 to 0.5)”: median about -0.013, highest 2% from about 0.3 on). The list shows a part of the results.

Target: T1, Msn1 (UniProt P22148)
T1 sequence: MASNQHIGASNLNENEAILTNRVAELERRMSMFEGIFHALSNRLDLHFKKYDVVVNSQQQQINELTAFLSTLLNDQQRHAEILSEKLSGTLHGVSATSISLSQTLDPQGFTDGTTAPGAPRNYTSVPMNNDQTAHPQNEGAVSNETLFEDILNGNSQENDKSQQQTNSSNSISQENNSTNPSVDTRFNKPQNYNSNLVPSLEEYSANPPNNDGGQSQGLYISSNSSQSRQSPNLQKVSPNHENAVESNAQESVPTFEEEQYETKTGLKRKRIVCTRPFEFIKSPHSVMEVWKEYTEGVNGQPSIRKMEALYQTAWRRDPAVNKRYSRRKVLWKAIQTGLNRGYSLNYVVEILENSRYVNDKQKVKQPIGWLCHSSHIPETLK
Experiment: PBM E-score (8-mer binding enrichment) (E-score (-0.5 to 0.5)); higher = stronger / more preferred TF binding; most listed sequences are background and not binding sites
Conditions: protein concentration: 200 nM; construct: GST-full length
Outline: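 Full-length yeast transcription factors or their DNA-binding domains, GST-tagged and expressed with PURExpress, were applied at about 100-200 nM to universal all-10-mer Agilent arrays. These arrays had been made double-stranded by primer extension on fresh or once-stripped slides. Detection used fluorescent anti-GST, normalisation used masliner, and E-scores for ungapped eight-base words pooled with reverse complements came from the Universal PBM Analysis Suite.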

Sequence | PBM E-score
CCATTTGC | 0.101
AGATTCCT | -0.0666
GCCTATAC | -0.109
CCATACTC | 0.00131
CATTTGCA | 0.0736
AAGTTGAA | 0.00886
AGAACCTA | -0.101
ATGTCTCG | 0.333
ACCATCTA | -0.171
GCCTATGA | -0.107
AGTTCAAG | 0.154
AGCGCGCA | 0.171
AATCCCTC | -0.126
CGAGCTTC | 0.142
AATTGAAC | 0.0221
GAGCCCCA | -0.226
AGCGGCAA | -0.114
ACTATAGA | 0.0421
ACCCCTGG | -0.224
CCATACAG | -0.107
GTCACGCA | 0.107
ACCACCGG | -0.197

Sequence | PBM E-score
CACCACTC | -0.0904
CAGCAAGC | -0.129
ACTCACTC | 0.0229
AATCCAAT | -0.0132
GCCATAAA | 0.0477
GGTAAACC | -0.1
CCCAAGAA | -0.00975
GTTATAAC | -0.0383
ATAACTCG | 0.0772
GATGGATA | 0.00702
ACCTTACT | 0.00176
TAAGGCGA | -0.0721
AACAGAGT | 0.128
GTACGTAA | 0.132
AATGCGAA | 0.0496
AAGAAAAA | 0.0635
ATGACCTG | 0.0774
GCGCTGAA | -0.222
CCTCAATA | -0.0793
CTACTGAG | -0.0811
TCCAAAGA | 0.207
ATTACTGA | -0.0356

Sequence | PBM E-score
ACGCACCG | 0.029
CGTTGCGA | -0.0915
GGACTACC | -0.292
ACGCCCAC | -0.114
AAGATGTG | 0.0907
GGCGTCTA | -0.23
TTAGACAA | 0.394
GGTTGTGA | 0.031
TATCGTGA | -0.0106
AAACACCT | 0.0598
AGGTGTAC | 0.00937
AGTTCCAT | 0.0691
GAGTACCA | 0.0166
CCTGCTAG | -0.0964
AAGGATGC | -0.132
AGGCATTC | -0.284
ACATCTCG | 0.137
ATGCGGTC | 0.116
AATGAGTG | -0.0537
CTGATCGC | -0.104
CCATGCGA | 0.108
ATCACTAA | -0.0338

Sequence | PBM E-score
CCCGCCCC | -0.12
AAGAATCC | -0.0215
ACTATGCA | 0.0563
TAGCTTAA | 0.0136
GAAGCGCC | 0.0782
TAATATAA | 0.268
GACGCAAA | -0.0204
GCTGACTA | -0.233
TAATGCGA | 0.164
CTTTCACC | 0.0806
CGCAGCTA | -0.132
ATATACCG | 0.139
AGTACACC | 0.162
ACAGCTTG | 0.00925
ACTCCACT | -0.098
CTGCCAGA | -0.203
ACCGTCCG | -0.0299
CCACTCTA | -0.0584
GACACTCA | -0.0259
AATTTTCA | 0.012
